Experimental data published in PubChem BioAssay AID2546 (National Center for Advancing Translational Sciences (NCATS), 2010).
The campaign covered roughly 310,000 compounds. About 11,000 (3.5%) were called active. This list was built around the results that the source calls inconclusive (neither active nor inactive); the mix of calls is not that of the screen. Calls follow the shape of the dose curve; as a rule, active = well fitted inhibition curve with a large enough effect; inconclusive = small, poorly fitted or top-dose-only effect, or effect the other way; inactive = flat fitted curve, though single readings scatter. Potencies of inconclusive entries are left out as doubtful fits.

Experiment: VP16 counterscreen qHTS for inhibitors of ROR gamma transcriptional activity;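 also: Gal4-VP16 expression switched on by copper sulfate through the metallothionein promoter; nearly all actives have a fitted effect of over 50% in size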
Conditions: Drosophila S2 Gal4-VP16 UAS-luciferase, luminescence, 20 h; activity, negative = inhibition: at 53.6 µM (top of the series)
% is scaled to controls: 0 for no effect and ±100 for the full control effect; potency is read from the fitted curve at half-maximal effect; tags tell the direction and shape of the fitted curve.

SMILES | Potency | activity, negative = inhibition
COc1cc(OC)c(OC)cc1/C=N/NC(=S)NCC1CCCO1 (configuration not stated) | active: 14.1 µM | –
CCCCn1c(/N=C/c2ccccc2NS(=O)(=O)c2ccc(C)cc2)nc2ccccc21 | inconclusive [inhibitor, single point] | –
O=C(Nc1nc(-c2ccc(-c3ccccc3)cc2)cs1)c1cnccn1 | active: 2 µM | –
CCOC(=O)NN=C1CN(S(=O)(=O)c2ccc(C)cc2)C1 | – | inactive: 1.59%
CCCCOc1cccc(C(=O)NC(=S)Nc2cccnc2)c1 | inconclusive [inhibitor, single point] | –
Cc1ccc(S(=O)(=O)Oc2ccc(N3C(=O)C4C5CCC(C5)C4C3=O)cc2)cc1 (configuration not stated) | inconclusive [inhibitor, single point] | –
O=C(Nc1ccc2c(c1)C(=O)N(c1ccccc1)C2=O)C1CCCO1 (configuration not stated) | inconclusive [activator, single point] | –
OC(COC(c1ccc(Cl)cc1)c1ccc(Cl)cc1)CN1CCc2ccccc2C1 (configuration not stated) | inconclusive [inhibitor, single point] | –
CC(C)C(NC(=O)COc1ccc2ccccc2c1)C(=O)N/N=C/C=C/c1ccccc1 (configuration not stated) | inconclusive [inhibitor, single point] | –
CCn1c(COc2cccc(C)c2C)nnc1SCC(=O)N1CCN(c2ccc(OC)cc2)CC1 | active: 0.891 µM | –
Cc1cccc(OC2CCN(Cc3nc(CC4CC4)no3)CC2)c1 | – | inactive: 7.6%
COc1ccc(/C(C)=N/NC(=S)NCCc2ccccc2)cc1 | active: 1.12 µM | –
Cc1ccc(CNC(=O)Nc2ccc(F)cc2)n1C | – | inactive: -1.9%
CCOc1ccc(S(=O)(=O)Nc2ccc(F)cc2)c(C)c1C | active: 17.8 µM | –
CN(C)NC(=S)Nc1ccc(S(=O)(=O)N2CCCCC2)cc1 | active: 5.62 µM | –
COc1cccc(/C=N/NC(=O)CC2C(=O)NN=C2C)c1O (configuration not stated) | – | inactive: -5.89%
Cc1cc(NC(=O)c2ccc(NC(=O)C(C)Oc3ccccc3)cc2)no1 (configuration not stated) | inconclusive [activator, full curve, poor fit] | –
Cc1cccc(NC(=S)NC(=O)c2cc(-c3ccccc3)nc3ccccc23)c1 | active: 5.62 µM | –
Cc1ccc(/C=C2/NC(=O)N(c3ccccc3)C2=O)o1 | inconclusive [inhibitor, single point] | –
COc1ccc(Cc2nnc(SCC(=O)Nc3ncc(C)s3)o2)cc1 | inconclusive [activator, single point] | –
CCn1ncc(Cl)c1C(=O)Nc1cc([N+](=O)[O-])ccc1OC | – | inactive: -4.42%
CCOc1cc(NS(=O)(=O)c2ccccc2)c(OCC)cc1NC(=O)c1ccco1 | – | inactive: 18.9%
